Laboratory results taken from the supplement of paper PMC8728848.
This is one part of the list.

Experiments:
Test in all cases: glycan array binding signal (z-score within array); higher = stronger binding
Details in all cases: glycan notation: IUPAC condensed, linker removed
[1] = molecular target: Gal(b1-3)GlcNAc(b1-6)GalNAc
In short: (§1)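 Glycan array binding is given as a within-array Z-score, which can be read as non-binding when negative. The arrays, 3228 of them, came from the Consortium for Functional Glycomics database and were retained only where the protein sequence was available. Z-scores were averaged across arrays of the same protein sequence at different concentrations or buffers and across linkers.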

[2] = molecular target: Gal(b1-3)GlcNAc(b1-6)[Gal(b1-3)]GalNAc
In short: as §1

Gal(b1-3)GlcNAc6S = molecular target: Gal(b1-3)GlcNAc6S
In short: as §1

[3] = molecular target: Gal(b1-3)[Fuc(a1-4)]GlcNAc
In short: as §1

[4] = molecular target: Gal(b1-3)[Fuc(a1-4)]GlcNAc(b1-2)Man
In short: as §1

[5] = molecular target: Gal(b1-3)[Fuc(a1-4)]GlcNAc(b1-2)Man(a1-3)[Gal(b1-3)[Fuc(a1-4)]GlcNAc(b1-2)Man(a1-6)]Man(b1-4)GlcNAc(b1-4)[Fuc(a1-6)]GlcNAc
In short: as §1

[6] = molecular target: Gal(b1-3)[Fuc(a1-4)]GlcNAc(b1-3)Gal(b1-3)[Fuc(a1-4)]GlcNAc
In short: as §1

[7] = molecular target: Gal(b1-3)[Fuc(a1-4)]GlcNAc(b1-3)Gal(b1-4)[Fuc(a1-3)]GlcNAc
In short: as §1

[8] = molecular target: Gal(b1-3)[Fuc(a1-4)]GlcNAc(b1-6)GalNAc
In short: as §1

[9] = molecular target: Gal(b1-3)[GlcNAc(b1-6)]GalNAc
In short: as §1

[10] = molecular target: Gal(b1-3)[Neu5Ac(a2-6)]GalNAc
In short: as §1

[11] = molecular target: Gal(b1-3)[Neu5Ac(a2-6)]GlcNAc(b1-4)Gal(b1-4)Glc
In short: as §1

[12] = molecular target: Gal(b1-3)[Neu5Ac(b2-6)]GalNAc
In short: as §1

Gal(b1-4)Gal = molecular target: Gal(b1-4)Gal
In short: as §1

[13] = molecular target: Gal(b1-4)GalNAc(a1-3)[Fuc(a1-2)]Gal(b1-4)GlcNAc
In short: as §1

[14] = molecular target: Gal(b1-4)GalNAc(b1-3)[Fuc(a1-2)]Gal(b1-4)GlcNAc
In short: as §1

Gal(b1-4)Glc = molecular target: Gal(b1-4)Glc
In short: as §1

Gal(b1-4)Glc6S = molecular target: Gal(b1-4)Glc6S
In short: as §1

Gal(b1-4)GlcNAc = molecular target: Gal(b1-4)GlcNAc
In short: as §1

[15] = molecular target: Gal(b1-4)GlcNAc(a1-6)Gal(b1-4)GlcNAc
In short: as §1

Gal(b1-4)GlcNAc(b1-2)Man = molecular target: Gal(b1-4)GlcNAc(b1-2)Man
In short: as §1

[16] = molecular target: Gal(b1-4)GlcNAc(b1-2)Man(a1-3)Man(b1-4)GlcNAc(b1-4)GlcNAc
In short: as §1

[17] = molecular target: Gal(b1-4)GlcNAc(b1-2)Man(a1-3)[Gal(b1-4)GlcNAc(b1-2)Man(a1-6)]Man(b1-4)GlcNAc(b1-4)GlcNAc
In short: as §1

[18] = molecular target: Gal(b1-4)GlcNAc(b1-2)Man(a1-3)[Gal(b1-4)GlcNAc(b1-2)Man(a1-6)]Man(b1-4)GlcNAc(b1-4)[Fuc(a1-6)]GlcNAc
In short: as §1

[19] = molecular target: Gal(b1-4)GlcNAc(b1-2)Man(a1-3)[Gal(b1-4)GlcNAc(b1-2)Man(a1-6)][Gal(b1-4)GlcNAc(b1-4)]Man(b1-4)GlcNAc(b1-4)[Fuc(a1-6)]GlcNAc
In short: as §1

[20] = molecular target: Gal(b1-4)GlcNAc(b1-2)Man(a1-3)[Gal(b1-4)GlcNAc(b1-2)Man(a1-6)][GlcNAc(b1-4)]Man(b1-4)GlcNAc(b1-4)[Fuc(a1-6)]GlcNAc
In short: as §1

[21] = molecular target: Gal(b1-4)GlcNAc(b1-2)Man(a1-3)[GlcNAc(b1-2)Man(a1-6)]Man(b1-4)GlcNAc(b1-4)GlcNAc
In short: as §1

[22] = molecular target: Gal(b1-4)GlcNAc(b1-2)Man(a1-3)[GlcNAc(b1-4)][Gal(b1-4)GlcNAc(b1-2)Man(a1-6)]Man(b1-4)GlcNAc(b1-4)GlcNAc
In short: as §1

[23] = molecular target: Gal(b1-4)GlcNAc(b1-2)Man(a1-3)[Man(a1-6)]Man(b1-4)GlcNAc(b1-4)GlcNAc
In short: as §1

[24] = molecular target: Gal(b1-4)GlcNAc(b1-2)Man(a1-6)Man(b1-4)GlcNAc(b1-4)GlcNAc
In short: as §1

[25] = molecular target: Gal(b1-4)GlcNAc(b1-2)Man(a1-6)[GlcNAc(b1-2)Man(a1-3)]Man(b1-4)GlcNAc(b1-4)GlcNAc
In short: as §1

[26] = molecular target: Gal(b1-4)GlcNAc(b1-2)Man(a1-6)[Man(a1-3)]Man(b1-4)GlcNAc(b1-4)GlcNAc
In short: as §1

[27] = molecular target: Gal(b1-4)GlcNAc(b1-2)[Gal(b1-4)GlcNAc(b1-4)]Man(a1-3)[Gal(b1-4)GlcNAc(b1-2)Man(a1-6)]Man(b1-4)GlcNAc(b1-4)GlcNAc
In short: as §1

[28] = molecular target: Gal(b1-4)GlcNAc(b1-2)[Gal(b1-4)GlcNAc(b1-4)]Man(a1-3)[Gal(b1-4)GlcNAc(b1-2)[Gal(b1-4)GlcNAc(b1-6)]Man(a1-6)]Man(b1-4)GlcNAc(b1-4)GlcNAc
In short: as §1

[29] = molecular target: Gal(b1-4)GlcNAc(b1-2)[Gal(b1-4)GlcNAc(b1-4)]Man(a1-3)[GlcNAc(b1-4)][Gal(b1-4)GlcNAc(b1-2)Man(a1-6)]Man(b1-4)GlcNAc(b1-4)GlcNAc
In short: as §1

[30] = molecular target: Gal(b1-4)GlcNAc(b1-2)[Gal(b1-4)GlcNAc(b1-4)]Man(a1-3)[GlcNAc(b1-4)][Gal(b1-4)GlcNAc(b1-2)[Gal(b1-4)GlcNAc(b1-6)]Man(a1-6)]Man(b1-4)GlcNAc(b1-4)GlcNAc
In short: as §1

[31] = molecular target: Gal(b1-4)GlcNAc(b1-2)[Gal(b1-4)GlcNAc(b1-6)]Man(a1-6)[Gal(b1-4)GlcNAc(b1-2)Man(a1-3)]Man(b1-4)GlcNAc(b1-4)GlcNAc
In short: as §1

[32] = molecular target: Gal(b1-4)GlcNAc(b1-2)[Gal(b1-4)GlcNAc(b1-6)]Man(a1-6)[Gal(b1-4)GlcNAc(b1-2)Man(a1-3)]Man(b1-4)GlcNAc(b1-4)[Fuc(a1-6)]GlcNAc
In short: as §1

[33] = molecular target: Gal(b1-4)GlcNAc(b1-2)[Gal(b1-4)GlcNAc(b1-6)]Man(a1-6)[GlcNAc(b1-4)][Gal(b1-4)GlcNAc(b1-2)Man(a1-3)]Man(b1-4)GlcNAc(b1-4)GlcNAc
In short: as §1

[34] = molecular target: Gal(b1-4)GlcNAc(b1-2)[Gal(b1-4)GlcNAc(b1-6)]Man(a1-6)[GlcNAc(b1-4)][Gal(b1-4)GlcNAc(b1-2)[Gal(b1-4)GlcNAc(b1-4)]Man(a1-3)]Man(b1-4)GlcNAc(b1-4)[Fuc(a1-6)]GlcNAc
In short: as §1

[35] = molecular target: Gal(b1-4)GlcNAc(b1-3)Gal(b1-3)GalNAc
In short: as §1

[36] = molecular target: Gal(b1-4)GlcNAc(b1-3)Gal(b1-3)GlcNAc
In short: as §1

[37] = molecular target: Gal(b1-4)GlcNAc(b1-3)Gal(b1-4)Glc
In short: as §1

[38] = molecular target: Gal(b1-4)GlcNAc(b1-3)Gal(b1-4)GlcNAc
In short: as §1

[39] = molecular target: Gal(b1-4)GlcNAc(b1-3)Gal(b1-4)GlcNAc(b1-2)Man(a1-3)[Gal(b1-4)GlcNAc(b1-3)Gal(b1-4)GlcNAc(b1-2)Man(a1-6)]Man(b1-4)GlcNAc(b1-4)GlcNAc
In short: as §1

B1: Mg1lysM (Mycosphaerella graminicola) (protein)
chain: QRNPITITPQFDCGATNSQQYVARSGDTLTKIAQEIYHDVVGVCDIARANNLADPNRIDAGTPYTIPINCQTYDRNSCL
With B1 the “glycan array binding signal (z-score)” value [1] was -0.044, the “glycan array binding signal (z-score)” value [2] was -0.054 and the “glycan array binding signal (z-score)” value (Gal(b1-3)GlcNAc6S) was -0.073. The “glycan array binding signal (z-score)” value [3] was -0.066, the “glycan array binding signal (z-score)” value [4] was -0.063 and the “glycan array binding signal (z-score)” value [5] was -0.074. For the same binder, the “glycan array binding signal (z-score)” value [6] was -0.072, the “glycan array binding signal (z-score)” value [7] was -0.089 and the “glycan array binding signal (z-score)” value [8] was -0.059. The “glycan array binding signal (z-score)” value [9] was -0.084, the “glycan array binding signal (z-score)” value [10] was -0.067 and the “glycan array binding signal (z-score)” value [11] was -0.077. The “glycan array binding signal (z-score)” value [12] was -0.093, the “glycan array binding signal (z-score)” value (Gal(b1-4)Gal) was -0.077 and the “glycan array binding signal (z-score)” value [13] was -0.076. For the same binder, the “glycan array binding signal (z-score)” value [14] was -0.075, the “glycan array binding signal (z-score)” value (Gal(b1-4)Glc) was -0.076 and the “glycan array binding signal (z-score)” value (Gal(b1-4)Glc6S) was -0.057. The “glycan array binding signal (z-score)” value (Gal(b1-4)GlcNAc) was -0.068, the “glycan array binding signal (z-score)” value [15] was -0.088 and the “glycan array binding signal (z-score)” value (Gal(b1-4)GlcNAc(b1-2)Man) was -0.053. For the same binder, the “glycan array binding signal (z-score)” value [16] was -0.089, the “glycan array binding signal (z-score)” value [17] was -0.07 and the “glycan array binding signal (z-score)” value [18] was -0.039. The “glycan array binding signal (z-score)” value [19] was -0.088, the “glycan array binding signal (z-score)” value [20] was -0.065 and the “glycan array binding signal (z-score)” value [21] was -0.078. For the same binder, the “glycan array binding signal (z-score)” value [22] was -0.077, the “glycan array binding signal (z-score)” value [23] was -0.08 and the “glycan array binding signal (z-score)” value [24] was -0.083. For the same binder, the “glycan array binding signal (z-score)” value [25] was -0.065, the “glycan array binding signal (z-score)” value [26] was -0.084 and the “glycan array binding signal (z-score)” value [27] was -0.058. For the same binder, the “glycan array binding signal (z-score)” value [28] was -0.116, the “glycan array binding signal (z-score)” value [29] was -0.054 and the “glycan array binding signal (z-score)” value [30] was -0.087. The “glycan array binding signal (z-score)” value [31] was -0.076, the “glycan array binding signal (z-score)” value [32] was -0.034 and the “glycan array binding signal (z-score)” value [33] was -0.059. For the same binder, the “glycan array binding signal (z-score)” value [34] was -0.058, the “glycan array binding signal (z-score)” value [35] was -0.077 and the “glycan array binding signal (z-score)” value [36] was -0.081. The “glycan array binding signal (z-score)” value [37] was -0.071, the “glycan array binding signal (z-score)” value [38] was -0.08 and the “glycan array binding signal (z-score)” value [39] was -0.056.
